About 540 (0.36%) of roughly 150,000 compounds showed an effect of 50% or more. Some of the results follow.
Each compound was assayed on Plasmodium falciparum (assay: Primary screen in NF54 nanoGlo assay, in single point, at 2uM, 72h; a lower Z score goes with more inhibition). Conditions: timepoint 72 hour.
Assay type: functional, Erythrocyte

Row | Compound | % Inhibition | Z score
1 | O=C(C1CC=CCC1)N1CCC(Oc2cnsn2)C1 (configuration not stated) | -7% | 1.16
2 | C[C@H](Nc1ccn(CCc2ccncc2)n1)c1ccccn1 | 0% | -0.06
3 | COc1cccc(C2CN(C(=O)CC(C)(C)C)CC2C(=O)NCc2ccccn2)c1OC (configuration not stated) | -24% | 2.53
4 | CC(C)c1occc1C(=O)N1CCO[C@@H](CF)C1 | -2% | 0.25
5 | CN1CCc2ncnc(N3CCO[C@H](C(N)=O)C3)c2C1 | -2% | 0.27
6 | Cc1ccc(Cn2cccc2C(=O)C(=O)NC2CCCCC2)cc1C | 1% | -0.08
7 | OC(COCc1ccccc1)CN(Cc1cccc(F)c1)CC1CC(c2ccccc2)=NO1 (configuration not stated) | -9% | 1.2
8 | N#Cc1cc(-c2cccc(C(=O)N3C[C@H](CO)[C@@H](CO)C3)c2)ccc1F | 0% | -0.08
9 | CC(C)c1cc(CNCc2cc(Cl)ccc2OC[C@@H](O)CN2CCCCCC2)on1 | -4% | 0.62
10 | C[C@@H](C(=O)N(C)Cc1ccsc1)S(C)(=O)=O | 0% | 0
11 | Cc1cc(CNC[C@@H](C)CCO)ccc1Cl | -8% | 1.06
12 | NC(=O)c1c(-c2ccc(Cl)cc2Cl)csc1NC(=O)c1csc2c1CCCC2 | -9% | 1.18
13 | CC(C)CCc1cc(NC(=O)Cc2c[nH]c3cc(F)ccc23)n(C)n1 | 1% | -0.18
14 | CC(C)S(=O)(=O)CC(=O)N1CCC12CCCC2 | -3% | 0.48
15 | CC(=O)N1CCN(CC(=O)Nc2nc3ccccc3[nH]2)CC1 | -6% | 1.12
16 | Nc1nc2cc(C(=O)N3CCN(C4CCCCC4)CC3)ccc2s1 | -9% | 1.23
17 | CC(C)c1ccccc1Oc1nc(Oc2ccccc2C(C)C)nc(Oc2ccccc2C(C)C)n1 | -18% | 2.1
18 | CCCc1nc(C)sc1C(=O)NCCn1ccc2cc(F)ccc21 | -4% | 0.53
19 | O=S(=O)(c1cccnc1)N1CC(Oc2cccnc2)C1 | -5% | 0.96
20 | Cc1cc(C)n(CCCNC(=O)C2CCCN(c3cccc4c3C(=O)N(C3CCOC(C)(C)C3)C4=O)C2)n1 (configuration not stated) | 11% | -1.4
21 | O=C(NCc1ccoc1)c1ccc2c(c1)OCO2 | -6% | 0.9
22 | CN(Cc1nc(C(F)(F)F)no1)[C@H]1CS(=O)(=O)C[C@@H]1O | -10% | 1.02

Row | Compound | % Inhibition | Z score
23 | O=S(=O)(CCn1cnnn1)N1CCO[C@H](C2CCCCC2)C1 | -6% | 0.97
24 | CC(=O)c1cc(Cl)c(Cl)cc1OCc1ncc(C)o1 | -8% | 0.81
25 | Cc1ccc(OCC(=O)N2N=C3CCCCC3C2(O)C(F)(F)F)cc1 (configuration not stated) | 4% | -0.44
26 | O=S(=O)(c1ccc(Cl)cc1F)N1CC[C@H](c2cnccn2)C1 | -4% | 0.72
27 | CCN(CC)c1ccc(N2CCN(C(C)=O)CC2)nn1 | -7% | 1.08
28 | COc1cccc(CNC(=O)Cn2nc3c(Oc4ccccc4)nc4ccccc4n3c2=O)c1 | -10% | 1.43
29 | CCOC(=O)CN(C(=O)CCNC(=O)C(C)(C)C)c1ccc(F)cc1 | -19% | 1.67
30 | COc1cccc(C(N[C@H]2CCOC2)c2cccc(OC)c2)c1 | -16% | 2.55
31 | Cc1nc(CN2CCN(c3ccccc3F)CC2)[nH]c1C | -10% | 2.01
32 | COc1ccc(N2CCN(C(=O)[C@H]3CC(=O)N(C4CC4)C3)CC2)cc1 | -1% | 0.12
33 | CN(CCCCc1ccccc1)C(=O)C1CCCC1N (configuration not stated) | -3% | 0.62
34 | O=C(NCc1cccc(N2CCCC2)c1)[C@H]1CC(=O)N(Cc2ccncc2)C1 | -11% | 1.76
35 | CC(=O)N1CCN(C(=O)[C@H](C2CCCC2)N2CCN(C(=O)c3cccs3)CC2)CC1 | 3% | -0.33
36 | CC(C)CN(C1CCOCC1)C1CN(Cc2ccc(F)cc2)C1 | -18% | 3.48
37 | CC1CN(CC(=O)Nc2sc3c(c2C(N)=O)CCC3)CC(C)O1 (configuration not stated) | -13% | 2.18
38 | CNc1cc(C(=O)N(C[C@H]2COc3ccccc3O2)C(C)C)ccn1 | -3% | 0.59
39 | O=C1C[C@@]2(CCN(C(=O)C3(Cc4cccc(F)c4)CCCCC3)C2)CN1 | -33% | 3.84
40 | CN(C)C(=O)c1c(O)cc(F)cc1F | -10% | 1.17
41 | Cc1ccc(S(=O)(=O)NCC2(c3cccs3)CC2)c(C)c1 | -11% | 1.45
42 | Cc1nnc(-c2ccc(Cl)cc2)nc1O | 0% | 0.05
43 | Cc1nnccc1C(=O)NC1(CO)CCCCCCC1 | -7% | 1.41
44 | Cc1cc(C(=O)N2CCN(c3nccs3)CC2)c2ccccc2n1 | -10% | 1.26

Row | Compound | % Inhibition | Z score
45 | N#Cc1ccc(-c2ccc(OS(=O)(=O)c3ccccc3)cc2)cc1 | -10% | 1.04
46 | Cc1nc(C)c(F)c(N2CCC(O)(Cc3ccccn3)CC2)n1 | -15% | 1.87
47 | Cc1noc(C)c1CCC(=O)N1CC(n2ccnn2)C1 | -5% | 0.76
48 | CCN(CC)c1onc(-c2ccccc2)c1CN(C(=O)c1ccc(F)cc1)C1CC1 | -1% | 0.12
49 | CCOCCN(C)C(=O)CCCn1cncn1 | 3% | -0.46
50 | Cc1cc(Br)oc1C(=O)NCc1ccc2c(c1)OCO2 | -8% | 1.58
51 | Cc1cc(=O)c(C(=O)N(C)Cc2nccs2)cn1C1CC1 | -3% | 0.36
52 | Brc1ccc2c(c1)CCCC[C@@H]2NCc1cocn1 | 1% | -0.12
53 | CCOCCCNc1cc([C@H]2CCOC2)nc(C)n1 | 2% | -0.27
54 | C[C@H](O)c1cn(C2CN(C(=O)C(C)(C)Oc3ccc(Cl)cc3)C2)nn1 | -3% | 0.45
55 | Cn1cc(Cl)cc1C(=O)N1CCCN(CC2CCC2)CC1 | -4% | 0.65
56 | C[C@@H](CC(F)F)C(=O)N1CCCCCC1 | -13% | 1.75
57 | COC(=O)c1c(NC(=O)c2cc(C)c(F)c(C)c2)nc2n1CCC2 | -14% | 1.89
58 | O=C1CCC(c2ccccc2)(c2ccccc2)CN1C1CCOCC1 | -6% | 0.53
59 | O=C(N[C@@H]1COCC[C@@H]1Oc1ccc(F)cc1)c1ccon1 | 1% | -0.17
60 | CCN1C[C@H](CN(C)C(=O)CN2C(=O)NC3(CCCC3)C2=O)Oc2ccccc21 | 6% | -0.87
61 | CC12CN(S(=O)(=O)c3ccccc3)CC(C)(CN(S(=O)(=O)c3ccccc3)C1)C2O (configuration not stated) | 11% | -1.43
62 | O=C(c1cc(F)c(F)c(O)c1F)N1CCOCC12CCCC2 | 3% | -0.31
63 | CC(C)(C)OC(=O)N1CCC(C(=O)O)C2C1C2(F)F (configuration not stated) | -4% | 0.78
64 | Cc1noc(C)c1CNC(=O)[C@H]1CCc2nn(C)c(=O)cc2C1 | -7% | 0.87
65 | CC1CCC(NC(=O)Cn2nnc(-c3ccncn3)n2)CC1 (configuration not stated) | 5% | -0.68
66 | Cc1cc(C)c(CCNC(=O)N2CCNC(=O)CC2)c(C)c1 | 22% | -2.53

Row | Compound | % Inhibition | Z score
67 | Cc1nn(C)c(C)c1C(O)CNC(=O)N[C@@H]1CCCOC1 (some centres not stated) | -13% | 1.33
68 | CCNC(=O)Nc1c[nH]nc1[C@H]1CCCN(C(=O)c2cccc(OC)c2)C1 | -10% | 0.88
69 | COc1ccc2nc(N3CC(C(=O)Nc4nc(C)c(C(=O)N(C)C)s4)C3)sc2c1 | 8% | -1.26
70 | O=S(=O)(Oc1cccc2cccnc12)c1ccc2ccccc2c1 | -11% | 1.75
71 | C=C(C)COc1ccccc1CNCCNC(=O)c1ccncc1 | -11% | 1.29
72 | O=C(N[C@H]1CCOC[C@@H]1O)c1ccc2ncsc2c1 | 14% | -1.9
73 | CC[C@@H]1OC2(CCN(c3ncnc4cc(Br)ccc34)CC2)NC1=O | 3% | -0.47
74 | O=C(CN1CCC[C@H](c2nc3ccccc3s2)C1)Nc1ccc(N2CCOCC2)cc1 | -1% | 0.13
75 | Cc1cc(F)ccc1OC1(C(=O)O)CCN(C(=O)C2(N)CCC2)CC1 | -6% | 1.19
76 | Cc1nc2ccc(NC(=O)[C@H](C)NC(=O)OCc3ccccc3)cc2s1 | 2% | -0.32
77 | CN1CCCN(C(=O)c2ccc(Cl)c(N3CCCC3=O)c2)c2nc3ccccc3nc21 | 0% | 0.08
78 | CN(C(=O)c1ccc(F)c(S(=O)(=O)N2CCCC2)c1)c1cc(-c2ccccc2)[nH]n1 | -1% | 0.1
79 | COC(=O)c1ccc2c(c1)N(C(=O)c1ccn(-c3ccc(F)cc3C)n1)CC(=O)N2 | -2% | 0.25
80 | Cc1sc(C)c(S(=O)(=O)N2CCCc3ccccc32)c1-c1ccno1 | -13% | 2.3
81 | CCCc1nc(C)c(CNC(=O)c2cnc(C3CC3)nc2O)s1 | 2% | -0.38
82 | CC(=O)Nc1cc(C)nn1-c1ccc(NC(=O)Cc2coc3cc(C)c(C(C)C)cc23)cc1 | 7% | -0.91
83 | Oc1cc(CNCc2nnc3n2CCCC3)nc2c(F)cccc12 | -8% | 1.06
84 | O=C([C@@H]1COc2ccccc2O1)N1CCN(C(c2ccccc2)c2ccccc2)CC1 | -4% | 0.89
85 | Cc1cc2ccccc2nc1NCCCCN1CCN(CCO)CC1 | 3% | -0.31
86 | O=C(CN1CCCN(c2cnc3ccccc3n2)CC1)N1CCCC1 | -10% | 1.53
